Here are results for 38 compounds from the supplement of paper PMC9446081.

Screen size: about 39,000 compounds; about 220 (0.56%) showed activity. Some of the results follow.
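Note: static incubation at 37 °C against the wild-type strain, values averaged over two biological replicates.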

The test system of this experiment is Escherichia coli K-12 BW25113. Nature of the experiment: relative growth (OD600 normalised to plate interquartile mean) (fraction); higher = less growth inhibition, active = 0.2 or less. The conditions noted are these: 50 µM; LB; incubation time: overnight (16-24 h).
Consider `Cc1noc(C)c1S(=O)(=O)Nc1ccc2c(c1)C(=O)N([C@H](C)CO)C[C@H](C)[C@H](CN(C)Cc1ccccc1)OCCCC[C@@H](C)O2`, for which the relative growth was inactive: 0.988.

`C[C@H](CO)N1C[C@H](C)[C@@H](CN(C)Cc2ccc3c(c2)OCO3)OCCCC[C@H](C)Oc2ccc(NS(=O)(=O)c3ccc(F)cc3)cc2C1=O`: the relative growth is inactive: 0.993.

With `C[C@@H]1CN([C@H](C)CO)C(=O)c2cc(NC(=O)C3CCCCC3)ccc2O[C@@H](C)CCCCO[C@H]1CN(C)S(=O)(=O)c1ccccc1`, the relative growth is inactive: 0.989.

In the case of `C[C@@H]1CCCCO[C@H](CN(C)C(=O)Nc2ccccc2)[C@@H](C)CN([C@H](C)CO)C(=O)c2cc(NC(=O)Nc3ccc(F)cc3)ccc2O1`, the relative growth is inactive: 1.

For `Cc1[nH]c(=O)[nH]c(=O)c1CCC(=O)O`, the relative growth was inactive: 1.01.

In the case of `O=C(C[C@@H]1CC[C@H]2[C@@H](COC[C@H](O)CN2Cc2cc(F)ccc2F)O1)N[C@H]1CCN(Cc2ccccc2)C1`, the relative growth is inactive: 1.01.

Regarding `Cn1cc(-c2nc(N[C@@H]3CCCC[C@@H]3N)c(F)c3c2C(=O)NC3)cn1`, the relative growth is inactive: 1.01.

As for `Cn1cnc(S(=O)(=O)N2C[C@@H](O)COC[C@H]3O[C@H](CC(=O)NCc4ccc(F)cc4)CC[C@@H]32)c1`, the relative growth was inactive: 1.02.

`Cc1noc(C)c1NC(=O)Nc1cccc2c1O[C@H](CN(C)S(=O)(=O)c1ccccc1)[C@@H](C)CN([C@@H](C)CO)C2=O`: the relative growth is inactive: 0.999.

Take `C[C@@H]1CN([C@H](C)CO)C(=O)c2c(c3ccccc3n2C)-c2ccccc2CO[C@@H]1CN(C)S(C)(=O)=O`: the relative growth was inactive: 0.989.

Regarding `C[C@@H]1CN([C@H](C)CO)C(=O)c2cc(NC(=O)CCC(F)(F)F)ccc2O[C@H]1CN(C)Cc1ccc(C(F)(F)F)cc1`, the relative growth was inactive: 1.04.

As to `C[C@@H]1CN([C@H](C)CO)C(=O)Cc2cc(NC(=O)Cc3cn(C)c4ccccc34)ccc2O[C@@H]1CN(C)S(=O)(=O)c1cn(C)cn1`, the relative growth was inactive: 1.02.

Regarding `C[C@H](CO)N1C[C@H](C)[C@H](CN(C)Cc2ccc(-c3ccccc3)cc2)Oc2ccc(NC(=O)C3CC3)cc2C1=O`, the relative growth is inactive: 1.02.

`COc1ccc(S(=O)(=O)Nc2ccc3c(c2)C(=O)N([C@@H](C)CO)C[C@@H](C)[C@H](CN(C)Cc2ccccc2)OCCCC[C@@H](C)O3)cc1`: the relative growth is inactive: 0.999.

Consider `CC(C)NC(=O)Nc1cccc2c1O[C@H](CN(C)S(=O)(=O)c1ccccc1)[C@H](C)CN([C@@H](C)CO)C2=O`, for which the relative growth is inactive: 0.986.

In the case of `O=C(C[C@H]1C[C@@H]2c3cc(NS(=O)(=O)c4ccc(F)cc4)ccc3O[C@@H]2[C@H](CO)O1)N1CCOCC1`, the relative growth is inactive: 1.03.

With `FC(F)(F)COCC(F)(F)F`, the relative growth is inactive: 1.18.

In the case of `C[C@@H]1CCCCO[C@H](CN(C)S(=O)(=O)c2cn(C)cn2)[C@H](C)CN([C@@H](C)CO)C(=O)c2cc(N(C)C)ccc2O1`, the relative growth is inactive: 0.986.

For the compound `C[C@@H]1CCCCO[C@H](CN(C)C(=O)Nc2ccc3c(c2)OCO3)[C@H](C)CN([C@H](C)CO)C(=O)c2cc(NC(=O)NC3CCCCC3)ccc2O1`, the relative growth was inactive: 1.01.

`O=C(CCCCCCC(=O)Nc1ccc([C@H]2C[C@H](c3ccccc3)O[C@H](c3ccccc3)O2)cc1)NO`: the relative growth is inactive: 1.01.

For `C[C@@H]1CCCCO[C@@H](CN(C)Cc2ccc(C(F)(F)F)cc2)[C@@H](C)CN([C@H](C)CO)C(=O)c2cc(NS(C)(=O)=O)ccc2O1`, the relative growth is inactive: 1.

For `C[C@@H]1CN([C@@H](C)CO)C(=O)c2cccc(NS(=O)(=O)c3cn(C)cn3)c2O[C@H]1CN(C)CC1CC1`, the relative growth was inactive: 1.02.

Regarding `C[C@@H]1CN([C@H](C)CO)C(=O)Cc2cc(NC(=O)c3ccncc3)ccc2O[C@H]1CN(C)S(=O)(=O)c1ccc(Cl)cc1`, the relative growth was inactive: 0.99.

In the case of `Cc1ccc(S(=O)(=O)Nc2ccc3c(c2)C(=O)N([C@H](C)CO)C[C@@H](C)[C@H](CN(C)C(=O)Nc2ccc(F)cc2)OCCCC[C@H](C)O3)cc1`, the relative growth is inactive: 1.02.

As to `O=c1cc(Cl)[nH]c(=O)[nH]1`, the relative growth is inactive: 0.982.

`COc1cccc(S(=O)(=O)N(C)C[C@H]2OCc3cn(nn3)CCCC(=O)N([C@@H](C)CO)C[C@@H]2C)c1`: the relative growth was inactive: 0.978.

Take `CO[C@@H]1CN(C)C(=O)c2ccc(NC(=O)Nc3cccc(F)c3)cc2OC[C@@H](C)N(C(=O)Nc2cccc(F)c2)C[C@H]1C`: the relative growth is inactive: 1.01.

For `NNC(=O)CCCC[C@H]1SC[C@H]2NC(=O)N[C@H]21`, the relative growth was inactive: 1.02.

As to `C[C@H](CO)N1C[C@H](C)[C@@H](CN(C)S(C)(=O)=O)OCCCC[C@H](C)Oc2ccc(NC(=O)Nc3cccc4ccccc34)cc2C1=O`, the relative growth is inactive: 1.01.

`COCC#Cc1cnc2c(c1)C(=O)N([C@@H](C)CO)C[C@@H](C)[C@@H](CN(C)C(=O)c1ccc3c(c1)OCO3)O2`: the relative growth was inactive: 0.984.

As for `COc1ccc(NC(=O)N(C)C[C@@H]2Oc3ccc(NS(C)(=O)=O)cc3C(=O)N([C@H](C)CO)C[C@H]2C)cc1`, the relative growth was inactive: 0.968.

`C[C@@H]1CN([C@H](C)CO)C(=O)Cc2cc(NC(=O)Nc3cccc4ccccc34)ccc2O[C@H]1CN(C)S(=O)(=O)c1ccc(F)cc1`: the relative growth is inactive: 1.03.

`OC[C@@H](O)[C@@H](O)[C@@H](O)CO`: the relative growth is inactive: 1.

Consider `O=C(C[C@@H]1CC[C@@H]2[C@H](COC[C@@H](O)CN2S(=O)(=O)c2ccccc2)O1)N[C@@H]1CCN(Cc2ccccc2)C1`, for which the relative growth was inactive: 1.

As to `O=C(C[C@H]1C=C[C@H](NS(=O)(=O)c2ccccc2F)[C@@H](CO)O1)NCCCN1CCOCC1`, the relative growth was inactive: 0.993.

For the compound `C[C@H]1CN([C@@H](C)CO)C(=O)c2cc(NC(=O)NC3CCCCC3)ccc2O[C@@H]1CN(C)S(=O)(=O)c1cn(C)cn1`, the relative growth was inactive: 1.01.

As for `CCO[C@@H]1OC(C(=O)N2CCN(Cc3ccc4c(c3)OCO4)CC2)=C[C@H](C)[C@H]1CCCOC(=O)NCCCCCC(=O)NO`, the relative growth is inactive: 0.997.

Take `C[C@@H]1CN([C@@H](C)CO)C(=O)c2cccc(NS(=O)(=O)c3cccs3)c2O[C@@H]1CN(C)S(=O)(=O)c1cn(C)cn1`: the relative growth is inactive: 1.01.
